Reference: PubChem BioAssay AID588342 (National Center for Advancing Translational Sciences (NCATS), 2011)
In all, about 360,000 compounds went through this assay and about 25,000 (6.9%) were called active. The shares of active, inactive and inconclusive entries below differ from those in the screen. The call rests on the fitted dose curve; in most records, active means well fitted inhibition curve with a large enough effect; inconclusive means small, poorly fitted or top-dose-only effect; inactive means flat fitted curve, though single readings scatter. Potencies of inconclusive entries are doubtful fits and often do not repeat.

Target: Luciferin 4-monooxygenase (Photinus pyralis) (UniProt P08659)
Chain of UniProt P08659 (P08659 whole entry, looked up): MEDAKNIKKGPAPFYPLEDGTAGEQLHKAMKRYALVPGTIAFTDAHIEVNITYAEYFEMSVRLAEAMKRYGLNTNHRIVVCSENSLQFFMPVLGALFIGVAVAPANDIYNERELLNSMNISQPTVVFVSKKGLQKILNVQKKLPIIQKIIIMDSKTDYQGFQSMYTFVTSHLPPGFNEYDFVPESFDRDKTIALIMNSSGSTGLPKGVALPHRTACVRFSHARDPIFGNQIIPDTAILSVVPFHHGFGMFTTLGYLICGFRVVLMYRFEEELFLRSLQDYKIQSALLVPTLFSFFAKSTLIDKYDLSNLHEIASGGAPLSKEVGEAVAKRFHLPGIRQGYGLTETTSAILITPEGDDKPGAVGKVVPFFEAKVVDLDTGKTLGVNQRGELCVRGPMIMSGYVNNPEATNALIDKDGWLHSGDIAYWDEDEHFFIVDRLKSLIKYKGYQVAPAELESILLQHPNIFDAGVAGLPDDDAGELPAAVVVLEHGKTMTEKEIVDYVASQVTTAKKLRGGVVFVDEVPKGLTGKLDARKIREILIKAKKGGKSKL
Test: qHTS profiling assay for firefly luciferase inhibitor/activator using purifed enzyme and Km concentrations of substrates (counterscreen for miR-21 project); further: nearly all actives have a fitted effect of over 55% in size
Conditions: purified FLuc, luminescence inhibition; series mostly up to 57.5 µM
In short: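 Purified P. pyralis luciferase, 10 nM final, with Km-level 10 uM D-luciferin and 10 uM ATP in 50 mM Tris acetate pH 7.5, 10 mM Mg acetate, 0.01% Tween-20, 0.05% BSA; 6-point qHTS titration about 60 µM downward; luminescence read.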
Potency means the concentration at half of the fitted maximal effect; tags describe the fitted curve by direction and shape.

SMILES | Potency
Cc1nc(N2CCN(c3ccccn3)CC2)c2c(C)c(C(=O)Nc3c(C)cc(Br)cc3C)sc2n1 | inactive
CCCCCCOC(=O)Sc1nc2ccccc2o1 | active: 23.9 µM
COc1ccc(NC(=O)COC(=O)CCCOc2ccc(Cl)cc2Cl)cc1 | inconclusive: 26.9 µM [inhibitor, single point]
O=C(Nc1cccc(Cl)c1)ON=C1c2ccccc2-c2ccccc21 | inconclusive: 26.9 µM [inhibitor, single point]
COc1ccccc1NC(=O)CSc1nc(-c2ccccc2F)nc2cc(=O)[nH]n12 | inconclusive: 15.1 µM [inhibitor, partial curve]
COc1cc(/C=N/Nc2ccc(C(F)(F)F)cn2)ccc1O | inconclusive: 26.9 µM [inhibitor, single point]
CCCC(=O)Nc1ccc2oc(-c3ccncc3)nc2c1 | inconclusive: 30.1 µM [inhibitor, partial curve, poor fit]
CCOC(=O)c1ccc(-n2[nH]c(-c3ccccc3)cc2=O)cc1 | inconclusive: 16.9 µM [inhibitor, partial curve, poor fit]
CC(C)(C)c1ccc(C(=O)N2CCC(c3nc4ccccc4o3)CC2)cc1 | inconclusive: 26.9 µM [inhibitor, partial curve, poor fit]
Cc1nc(-n2[nH]c3c(c2=O)CCCC3)[nH]c(=O)c1Cc1ccccc1 | inconclusive: 26.9 µM [inhibitor, single point]
Cc1ccc(C)c(Cn2nnc3c(=O)[nH]c(C(=O)NCc4ccco4)nc32)c1 | inactive
COc1cccc(C(=O)/C=C/Nc2ccc(S(=O)(=O)Nc3ncccn3)cc2)c1 | inconclusive: 10.7 µM [inhibitor, partial curve, poor fit]
Cc1ccc(NC(=O)Cn2c(=O)n(CCC(=O)NCc3ccccc3Cl)c(=O)c3ccccc32)cc1 | inactive
C=CCc1c(C)nc2c(-c3ccccc3)cnn2c1N1CCOCC1 | active: 2.39 µM
O=c1cc(-c2ccccc2)[nH]c2[nH]n(-c3ccccc3)c(=O)c12 | inconclusive: 37.9 µM [inhibitor, single point]
CCc1ccc(S(=O)(=O)/N=C2\C=C(Nc3ccc(C(=O)O)cc3)C(=O)c3ccccc32)cc1 | inconclusive: 33.8 µM [inhibitor, single point]
CCOC(=O)N1CCN(C(=O)c2ccc3c(c2)NC(=O)/C(=C\c2ccc(OC)c(OC)c2)S3)CC1 | inconclusive: 30.1 µM [inhibitor, partial curve, poor fit]
O=C(COC(=O)c1cccs1)NCc1ccccc1 | inconclusive: 16.9 µM [inhibitor, partial curve]
